Target: the molecule itself
Test: cryo-EM structure

B1: amino-terminal half of TFG ([…]) (domain or fragment)
chain: not shown
- stoichiometry N: 8

Reference: doi:10.1101/2024.11.05.621662 (bioRxiv, 2024)
